Assay results from PubChem BioAssay AID1508623 (National Center for Advancing Translational Sciences (NCATS), 2021).
Among all 48,000 compounds or so, about 450 (0.94%) were called active. Inconclusive results, whose numbers are uncertain, are shown with a selection of clear calls. Calls follow the shape of the dose curve; as a rule, active = well fitted inhibition curve with a large enough effect; inconclusive = small, poorly fitted or top-dose-only effect; inactive = no such curve, though single readings can be large or run the other way. Where the call is inconclusive, the potency comes from a doubtful curve fit.

Assay: Primary qHTS for Identification of Small Molecule Inhibitors of Huntingtin Promoter Activity; also: nearly all actives have a fitted effect of over 50% in size
Settings: HEK293 HTT promoter firefly luciferase reporter (activity 0% = vehicle and -100% = no light), 24 h; series mostly up to 57.5 µM
Procedure, shortened: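 Firefly luciferase readout (Dual-Glo, 10 min RT) after 24 h, 37 °C compound exposure (final up to 57.5 uM) of HEK293 reporter cells cultured 24 h beforehand; PTC124 at 50 uM final as control inhibitor; activity scaled vehicle 0%, zero RLU -100%.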
Potency is read from the fitted curve at half-maximal effect; tags tell the direction and shape of the fitted curve.

Row | Structure (SMILES) | Potency
1 | Cn1cc(S(=O)(=O)N2CCCCCC2)cc1C(=O)N1CCN(c2cccc(Cl)c2)CC1 | inconclusive: 22.4 µM [inhibitor, partial curve, poor fit]
2 | CC(C)C[C@H](NC(=O)[C@@H](NC(=O)c1cccc(-c2ccccc2)n1)[C@@H](C)O)B(O)O | inconclusive: 0.0863 µM [inhibitor, full curve]
3 | COc1ccc(C2c3c(-c4c(C)cc(C)cc4O)n[nH]c3C(=O)N2Cc2ccco2)cc1 (stereo not given) | inconclusive: 12.6 µM [inhibitor, partial curve]
4 | CCOC(=O)c1cccc(NC(=O)c2ccc3c(Cl)c4c(nc3c2)CCC4)c1 | inactive
5 | Cc1ccc(CN2C(=O)C(O)(c3c[nH]c4ccccc34)c3cc(Cl)ccc32)cc1 (stereo not given) | inactive
6 | COc1ccc(C(=O)COC(=O)c2cccc(NC(=O)c3ccc(OC)c(OC)c3)c2)cc1 | inconclusive: 39.8 µM [inhibitor, single point]
7 | COc1ccc(C(=O)c2cn(Cc3ccc(F)cc3)c3ccc(C)cc3c2=O)cc1 | inconclusive: 25.1 µM [inhibitor, single point]
8 | Cc1nc(C)c(-c2ccc(SCC(=O)Nc3ccc(F)c(F)c3)nn2)s1 | inconclusive: 35.5 µM [inhibitor, single point]
9 | Cc1ccc(NC(=O)c2cc(S(=O)(=O)N3CCCC(C)C3)cn2C)c(Br)c1 (stereo not given) | inconclusive: 39.8 µM [inhibitor, single point]
10 | CCc1ccc(CN(Cc2cn[nH]c2-c2ccc(OC)cc2)C(=O)Nc2ccc(C)c(F)c2)cc1 | inconclusive: 31.6 µM [inhibitor, single point]
11 | CCOc1cc(C2c3c(-c4ccc(Br)cc4)n[nH]c3C(=O)N2c2ccc(Cl)cc2)ccc1O (stereo not given) | inconclusive: 35.5 µM [inhibitor, single point]
12 | CN[C@@H]1CN(c2ccc3c(=O)c(C(=O)O)cn(-c4nccs4)c3n2)C[C@@H]1OC | inconclusive: 3.35 µM [inhibitor, partial curve, poor fit]
13 | O=C(NCc1ccc(Cl)cc1)C1CCCN(c2nc3ccccc3n3cccc23)C1 (stereo not given) | inconclusive: 25.1 µM [inhibitor, partial curve, poor fit]
14 | Cc1ccccc1Cn1c(=O)n(CCc2ccccc2)c(=O)c2ccccc21 | inconclusive: 39.8 µM [inhibitor, partial curve, poor fit]
15 | COC(=O)c1c(-c2ccc(Cl)cc2)noc1N1CCN(c2cccc(C(F)(F)F)c2)CC1 | inactive
16 | CCCn1ccc2c(OCC(=O)NCc3ccccc3Cl)cccc2c1=O | inactive
17 | Cc1cc(C)nc(NS(=O)(=O)c2ccc(NC(=O)COc3ccc(C(C)(C)C)cc3)cc2)n1 | inactive
18 | Cc1cccc(C)c1Nc1c(-c2ccsc2)nc2ccc(Cl)cn12 | inactive
19 | COC(c1ccccc1)(c1ccccc1)[C@H](Oc1nc(C)cc(C)n1)C(=O)O | inactive
20 | CC(O)C1C(=O)N2C(C(=O)O)=C(SC3CNC(C(=O)N(C)C)C3)C(C)C12 (stereo not given) | inactive

Row | Structure (SMILES) | Potency
21 | CC(=O)c1ccc(N2CCN(S(=O)(=O)c3ccc4[nH]c5c(c4c3)CCCC5)CC2)cc1 | inconclusive: 39.8 µM [inhibitor, single point]
22 | CCc1ccc(Nc2nc(N)nc(CSc3nc4ccccc4s3)n2)cc1 | inactive
23 | CCc1ccccc1NS(=O)(=O)c1ccc2c(c1)OCC(C(=O)N1CCCC1)O2 (stereo not given) | inconclusive: 25.1 µM [inhibitor, single point]
24 | CCOCc1cc(CN2CCN(c3cccc(Cl)c3)CC2)c(O)c2ncccc12 | inconclusive: 14.1 µM [inhibitor, partial curve, poor fit]
25 | CCOC(=O)CSc1nc2ccc(NC(=O)c3ccccc3F)cc2s1 | inactive
26 | CCOc1ccc(CNC(=O)c2ccc(Sc3ccc(Cl)cc3)c(NC(C)=O)c2)cc1OC | inconclusive: 14.1 µM [inhibitor, partial curve, poor fit]
27 | CC(=O)Nc1ccc(NC(=O)c2oc3ccc4c(c3c2C)C(=O)CC(C)(C)O4)cc1 | inactive
28 | O=C(C1CCCN(S(=O)(=O)c2ccc(Br)s2)C1)N1CCN(c2ccccc2)CC1 (stereo not given) | inconclusive: 31.6 µM [inhibitor, single point]
29 | CC(=O)N1CCCc2cc(S(=O)(=O)N3CCCC(C(=O)Nc4cc(Cl)ccc4C)C3)ccc21 (stereo not given) | inconclusive: 31.6 µM [inhibitor, single point]
30 | C=Cc1ccc(Cn2c(C(=O)O)c(CNCc3ccccc3)c3ccc(C)cc32)cc1 | inconclusive: 28.2 µM [inhibitor, single point]
31 | Cc1ccc(-c2csc(=Nc3ccc(F)cc3)n2Cc2ccc3c(c2)OCO3)cc1C | inconclusive: 31.6 µM [inhibitor, partial curve, poor fit]
32 | CCOc1ccccc1NS(=O)(=O)c1ccc(-c2cnc(C3CC3)o2)cc1 | inconclusive: 4.47 µM [inhibitor, partial curve]
33 | Cc1ccc(NC(=O)CN2C(=O)C3(SCC(=O)N3c3cccc(Cl)c3)c3ccccc32)cc1C (stereo not given) | inconclusive: 8.91 µM [inhibitor, partial curve, poor fit]
34 | Cc1nn(-c2ccccc2)c2sc(C(=O)Nc3ccccc3Br)cc12 | inactive
35 | Nc1c(C(=O)Nc2ccc(C(=O)O)cc2)sc2nc3c(cc12)CCCC3 | inconclusive: 3.55 µM [inhibitor, partial curve, poor fit]
36 | Cc1nc2nncn2c(NCc2ccc(F)cc2)c1C | inconclusive: 15.8 µM [inhibitor, partial curve, poor fit]
37 | CCCCN(C)C(=O)C1CCC(CNS(=O)(=O)c2ccc(Cl)cc2)CC1 (stereo not given) | inconclusive: 15.8 µM [inhibitor, partial curve, poor fit]
38 | Cc1ccc(CS(=O)(=O)c2ncc(Cl)c(C(=O)Nc3nc4ccc(F)cc4s3)n2)cc1 | inconclusive: 31.6 µM [inhibitor, single point]
39 | O=C(Nc1ccc2oc(-c3ccc4ccccc4c3)nc2c1)c1ccccc1F | inactive
40 | CN(Cc1ccccc1)c1ncnc2onc(-c3ccc(F)cc3)c12 | inconclusive: 25.1 µM [inhibitor, partial curve]
